This is an account of results in patent publication US20200172473A1, “DUAL MODULATORS OF FARNESOID X RECEPTOR AND SOLUBLE EPOXIDE HYDROLASE” (JOHANN WOLFGANG GOETHE-UNIVERSITÄT FRANKFURT AM MAIN, priority 2017, published 2020).

In this assay the target is T1, human FXR (Homo sapiens, UniProt Q96RI1).
T1 construct: characterized in a full-length (fl) FXR reporter gene assay in HeLa cells; expressed in transfected cells; host or cells: HeLa
T1 sequence (Q96RI1 1-486): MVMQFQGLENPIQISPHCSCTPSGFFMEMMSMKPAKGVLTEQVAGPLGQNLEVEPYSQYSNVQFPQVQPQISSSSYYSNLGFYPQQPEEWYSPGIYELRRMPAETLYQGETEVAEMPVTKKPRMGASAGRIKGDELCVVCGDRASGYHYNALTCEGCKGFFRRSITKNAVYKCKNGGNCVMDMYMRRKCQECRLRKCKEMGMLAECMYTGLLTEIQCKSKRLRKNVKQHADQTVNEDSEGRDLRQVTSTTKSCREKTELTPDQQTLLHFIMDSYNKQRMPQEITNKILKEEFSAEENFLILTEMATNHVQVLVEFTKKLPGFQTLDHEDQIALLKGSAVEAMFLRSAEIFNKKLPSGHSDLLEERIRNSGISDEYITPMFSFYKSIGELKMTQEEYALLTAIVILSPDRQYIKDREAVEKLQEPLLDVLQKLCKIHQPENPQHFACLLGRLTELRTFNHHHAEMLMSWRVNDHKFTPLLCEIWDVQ
T1 sequence (P19793 1-462 partner): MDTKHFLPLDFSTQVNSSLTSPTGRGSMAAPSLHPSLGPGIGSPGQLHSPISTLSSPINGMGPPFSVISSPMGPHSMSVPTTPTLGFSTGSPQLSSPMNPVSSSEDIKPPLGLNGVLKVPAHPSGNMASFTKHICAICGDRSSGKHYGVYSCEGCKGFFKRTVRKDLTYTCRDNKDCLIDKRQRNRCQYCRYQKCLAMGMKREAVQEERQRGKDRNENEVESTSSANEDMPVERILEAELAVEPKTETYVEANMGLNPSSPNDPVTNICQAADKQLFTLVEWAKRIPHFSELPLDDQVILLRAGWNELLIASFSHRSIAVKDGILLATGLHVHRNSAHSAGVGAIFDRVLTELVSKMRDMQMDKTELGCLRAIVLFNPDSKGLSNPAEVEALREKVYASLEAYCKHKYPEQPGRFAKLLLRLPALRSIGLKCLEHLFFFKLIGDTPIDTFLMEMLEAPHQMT
Kind of assay: full-length FXR reporter gene (transactivation) assay in HeLa cells. The format is cell-based. The text has this: This assay is based on a reporter construct containing a firefly luciferase under the control of the FXR response element from bile salt export protein (BSEP). FXR and its hetero dimer partner retinoid X receptor (RXR) as expression constructs under the control of a CMV promoter as well as a constitutively expressed renilla luciferase (SV40 promoter) for normalization and toxicity control were co-transfected. […] The sEH inhibitory potency of the test compounds was quantified in a fluorescence-based assay using recombinant enzyme and the fluorogenic sEH substrate PHOME^37 that is hydrolyzed to a fluorescent 6-methoxynaphtaldehyde by sEH. […]
Assay procedure: HeLa cells were grown in DMEM high glucose supplemented with 10% FCS, sodium pyruvate (1 mM), penicillin (100 U/mL) and streptomycin (100 μg/mL) at 37° C. and 5% CO2. […] Luminescence was measured with a Tecan Infinite M200 luminometer (Tecan Deutschland GmbH, Crailsheim, Germany). […] EC50 and standard error of the mean values were calculated with the mean relative activation values of at least three independent experiments by SigmaPlot 10.0 (Systat Software GmbH, Erkrath, Germany) using a four parameter logistic regression.

Regarding `CC(C)(C)c1ccc(C(=O)NCc2ccc(NS(C)(=O)=O)cc2Cl)cc1` [compound 57, 4-(tert-Butyl)-N-(2-chloro-4-(methylsulfonamido)benzyl)benzamide], the Emax (HeLa, read-out: FXR activation max. rel. activation (converted)) is 35%. The EC50 (full-length FXR reporter gene assay, HeLa cells, read-out: FXR activation EC50) is 20.4 ± 4.2 nM.
